Results published in PubChem BioAssay AID1745853 (National Center for Advancing Translational Sciences (NCATS), 2022).
Some of the results follow. The main result of the screen is listed elsewhere. These columns were measured beside it and carry no call.

Experiments:
Test in all cases: Primary Screen for Target Class Profiling of Small Molecule Inhibitors of Methyltransferases
[1] = molecular target: Glycine N-methyltransferase (Homo sapiens) (UniProt Q14749); conditions: purified enzyme, MTase-Glo SAH luminescence; measured here: GNMT inhibition; at 40 µM; stronger effect = lower value
Procedure, shortened: (§1)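 Each enzyme was assayed with SAM and its substrate. SAH formation detected by MTase-Glo luminescence; single-point 40 uM screen[…].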

[2] = molecular target: Guanidinoacetate N-methyltransferase (Homo sapiens) (UniProt Q14353); conditions: purified enzyme, MTase-Glo SAH luminescence; measured here: GAMT inhibition; at 40 µM; stronger effect = lower value
Procedure, shortened: as §1

[3] = molecular target: Histamine N-methyltransferase (Homo sapiens) (UniProt P50135); conditions: purified enzyme, MTase-Glo SAH luminescence; measured here: HNMT inhibition; at 40 µM; stronger effect = lower value
Procedure, shortened: as §1

[4] = molecular target: Nicotinamide N-methyltransferase (Homo sapiens) (UniProt P40261); conditions: purified enzyme, MTase-Glo SAH luminescence; measured here: NNMT inhibition; at 40 µM; stronger effect = lower value
Procedure, shortened: as §1

[5] = molecular target: Phenylethanolamine N-methyltransferase (Homo sapiens) (UniProt P11086); conditions: purified enzyme, MTase-Glo SAH luminescence; measured here: PNMT inhibition; at 40 µM; stronger effect = lower value
Procedure, shortened: as §1
% is scaled to controls: 0 for no effect and ±100 for the full control effect.

SMILES	activity change, negative = inhibition [1] [%]	activity change, negative = inhibition [2] [%]	activity change, negative = inhibition [3] [%]	activity change, negative = inhibition [4] [%]	activity change, negative = inhibition [5] [%]
CCCNC(=O)N1CCCCC1c1n[nH]c(C)n1 (stereo not given)	-6.16	-6.69	-3.05	-12.3	-2.33
CCC(C)NC(=O)c1ccc2c(=O)n(C)c3nnc(SCC(=O)Nc4cccc(OC)c4)n3c2c1 (stereo not given)	9.85	0	10.7	9.89	6.28
COCCN1C(=O)c2cc3sccc3n2CC1(C)C(=O)NC1CCCCCCC1 (stereo not given)	-2.25	3.19	-1.64	-4.98	-3.59
COc1ccc(C(=O)NC2CCN(c3nc4ncccc4o3)CC2)cc1	-8.74	-14.6	-4.17	-14.8	-9.52
N#Cc1cc(F)cc(-c2nc(-c3ccccn3)no2)c1	-16.6	-11.4	-9.64	-33.2	-8.94
COc1ccc(NC(=O)CN(C)S(=O)(=O)c2ccc3[nH]c4c(c3c2)CCCC4)cc1OC	-7.27	3.49	-4.1	-5.39	-4.63
CC(C)NC(=O)c1ccc2c(=O)n(C(C)C)c3nn(CC(=O)Nc4cccc(Cl)c4)c(=O)n3c2c1	4.8	0.265	3.87	-0.774	9.29
CN(Cc1ccc(F)cc1)S(=O)(=O)c1cccs1	-1.7	-0.579	0.422	-5.65	1.44
CC(C)CCn1c(=O)c2ccc(C(=O)NCC(C)C)cc2n2c(=O)n(Cc3cccc(Cl)c3)nc12	7.94	1.23	11.7	3.94	7.22
CCCn1c(=O)c2ccccc2n2c(SCc3cccc(Cl)c3)nnc12	-8.69	9.9	2.76	-13.2	3.03
COc1ccccc1CN1C(=O)c2cc3oc(C)cc3n2CC1(C)C(=O)NC1CCCCCC1 (stereo not given)	-1.19	4.02	-0.635	0.776	0.158
CCCCS(=O)(=O)NC1CCc2nn(CC3CC3)c(=O)n2CC1 (stereo not given)	-2.81	-6.12	0.649	-8.65	-3.9
Cc1ccccc1C(=O)N1CCC2(CC1)CC(c1cccc(C(F)(F)F)c1)=NO2	-10.1	-6.37	-5.17	-16.7	-13.6
O=c1c2ccccc2n2c(=O)n(Cc3cccc(Cl)c3)nc2n1CCc1ccccc1	-2.88	-6.02	10.6	-4.35	-3.32
COc1cc(OC)cc(N2C(=O)CSc3c(c4ccccc4n3C)C2C(=O)NCc2ccc(F)cc2)c1 (stereo not given)	-4.08	0.61	2.69	1.2	4.71
CC1(C)CC2C=C(C(=O)O)C3COC(=O)C(O)(CO)C23C1 (stereo not given)	-1.9	0.102	0.251	-10.5	-0.182
Cc1nc(N)sc1-c1ccnc(Nc2ccc(N3CCOCC3)cc2)n1	-27.9	-4.75	-4.2	-14.5	-4.91
COc1ccc(CCN2C(=O)c3cc4sccc4n3CC2(C)C(=O)NC2CCCCC2)c(OC)c1 (stereo not given)	2.4	0	-0.889	2.02	1.31
Cc1ccc(CN2CC[C@H](c3nnc(-c4ccco4)o3)C2)o1	-5.56	-4.38	-1.07	-9.71	-0.963
CC(O)c1cc2n(n1)CCCN(c1ncnc3ccsc13)C2 (stereo not given)	-5.13	0.28	-0.788	-3.07	1.23

SMILES	activity change, negative = inhibition [1] [%]	activity change, negative = inhibition [2] [%]	activity change, negative = inhibition [3] [%]	activity change, negative = inhibition [4] [%]	activity change, negative = inhibition [5] [%]
C=CCn1c(=O)c2ccc(C(=O)NC(C)CC)cc2n2c(=O)n(CC(=O)NCc3ccccc3)nc12 (stereo not given)	1.06	3.42	-2.31	-5.44	-2.1
COC(=O)c1ccc(OC)cc1O[C@@H]1O[C@H](CO[C@@H]2OC[C@@H](O)[C@H](O)[C@H]2O)[C@@H](O)[C@H](O)[C@H]1O	1.07	2.54	7.54	-9.64	5.62
O=C(Cn1nc2nc(Nc3ccc(F)cc3)ccn2c1=O)NC1CCCC1	6.15	0	11	2.74	5.59
Cc1ccc(-c2n[nH]n3c2nc(=O)c2ccc(C(=O)N4CCN(c5ccccc5)CC4)cc23)cc1	-5	-0.42	-4.09	1.16	0.53
COc1cc(C2OCC3C(c4ccc(OC5OC(CO)C(O)C(O)C5O)c(OC)c4)OCC23)ccc1O (stereo not given)	-3.68	-8.21	5.07	-17.5	-7.82
CO[C@H](C)[C@H](N)C(=O)N1CCC(c2cc(Cc3ccccc3)[nH]n2)CC1	0.427	3.85	2.83	-5.66	0.181
COC(=O)c1ccccc1O[C@@H]1O[C@H](CO)[C@@H](O)[C@H](O)[C@H]1O[C@@H]1O[C@@H](C)[C@H](O)[C@@H](O)[C@H]1O	-1.84	2.73	0.618	-8.31	1.58
CC1=NOC2(CCN(Cc3ccncc3)CC2)C1	-1.78	-0.223	0.797	-3.61	-3.08
Cc1ccc(C(=O)C(C)n2nc3n(C)c(=O)c4ccc(C(=O)NC5CCCCC5)cc4n3c2=O)cc1C (stereo not given)	0.475	2.34	6.25	-5.13	-4.41
COC(=O)c1ncn2c1C(=O)N(C1CC1)C(C)(C(=O)NCc1ccc(C)cc1)C2 (stereo not given)	-5.71	2.52	-4.41	-8.17	-5.38
C=C1CCC2(OC1)OC1CC3C4CC=C5CC(O)CC(O[C@@H]6OC[C@H](OC(=O)C(O)C(C)CC)[C@H](O)[C@H]6O[C@@H]6O[C@@H](C)[C@H](O)[C@@H](O)[C@H]6O)C5(C)C4CCC3(C)C1C2C (stereo not given in full)	5.2	11.3	9.54	1.16	0.483
Cc1cccc(N2C(=O)c3ccc(-c4ccco4)n3CC2(C)C(=O)NC2CCCC2)c1C (stereo not given)	1.99	0.055	2.86	0.88	-1.83
COc1ccccc1C(=O)N1CCC(C(=O)N2CCC(N3Cc4ccccc4C3=O)CC2)CC1	-4.37	-5.33	-4.6	-13.4	-6.7
CC1(C)CCCC2(C)C3=C(C(=O)OC3O)C(O)CC12 (stereo not given)	0.85	8.3	9.46	-6.55	3.75
Cc1ccc(S(=O)(=O)N2CCCCCC2c2nnc(C)o2)c(C)c1 (stereo not given)	-3.59	-1	1.3	-11	-2.09
CC(=O)NCc1cn[nH]c1-c1ccc(Cl)cc1	-1.36	-2.51	0.389	-0.1	-2.72
COc1ccccc1-c1ccnc(N[C@H]2CO[C@H]3[C@@H]2OC[C@@H]3NS(=O)(=O)c2cccs2)n1	-1.72	-3.37	-0.368	-4.48	-7.88
C1CCC[C@H]2CCCN3CC[C@@H](CCCCCC[C@@H]4CCCN5CC[C@@H](CC1)O[C@@H]45)O[C@@H]23	0.338	–	10.8	–	–
CCc1ccc(CNC(=O)c2ccc3c(=O)nc4c(-c5cccc(F)c5)n[nH]n4c3c2)cc1	0.636	4.05	5.16	-7.36	-5.24
CCOC(=O)c1cc2n(n1)CC(C)(C(=O)NCCC(C)C)N(CCc1cccs1)C2=O (stereo not given)	1.05	4.51	5.03	-0.534	0.199

SMILES	activity change, negative = inhibition [1] [%]	activity change, negative = inhibition [2] [%]	activity change, negative = inhibition [3] [%]	activity change, negative = inhibition [4] [%]	activity change, negative = inhibition [5] [%]
O=C(c1n[nH]c2ccccc12)N1CCC2(CC1)N(c1ccccc1)C(=O)CS2=O (stereo not given)	-3.62	-0.508	1.25	-2.13	-0.848
NC[C@@H]1O[C@H](c2ccccc2)Cc2c1ccc(O)c2O	-16.5	10.2	-25.2	-5.06	3.55
CC1(CO)CC[C@]2(C(=O)O[C@@H]3O[C@H](CO)[C@@H](O)[C@H](O)[C@H]3O)CC[C@]3(C)C(=CCC4[C@@]5(C)CC[C@H](O[C@@H]6O[C@H](C(=O)O)[C@@H](O)[C@H](O)[C@H]6O)C(C)(C)C5CC[C@]43C)C2C1 (stereo not given in full)	-0.915	-2.36	5.1	-11.1	-8.37
Cc1ccccc1CCNC(=O)CCn1ccc2cc(S(=O)(=O)N3CCCCC3)ccc21	-9.6	-3.02	0.163	-14.1	-6.79
CN(C)CCN(C)[C@H]1[C@@H]2OC[C@@H](O2)[C@@H](NC(=O)Nc2cccc(C#N)c2)[C@@H]1O	-1.81	0.193	0.158	1.38	17.1
CCc1nnc([C@@H]2CC(F)(F)CN2C(=O)c2ocnc2C)o1	-2.83	-0.581	-0.936	-7.05	4.91
Cc1ccc(CN2C(=O)c3ccc(-c4ccccc4)n3CC2(C)C(=O)NC2CCCCCC2)cc1 (stereo not given)	7.26	0	3.49	4.39	2.85
CCCCCOc1ccc(C2SC(=O)NC2=O)cc1OCC (stereo not given)	-5.78	-9.78	8.82	-21.1	-3.03
Cc1ccc(-c2c(-c3nn(C)c4ncnc(N5CCC(N6CCCCC6)C5)c34)cnn2C)cc1 (stereo not given)	-2.66	5.76	4.57	-21.8	0.524
COc1ccc(N2C(=O)c3ccc(-c4ccco4)n3CC2(C)C(=O)NC2CCCC2)cc1 (stereo not given)	3.99	0.133	6.57	8.8	-0.251
c1nc(NC2CCCCCC2)c2cc(CNC[C@H]3CCCO3)sc2n1	-12.6	-7.34	-25	-28.1	-20.5
Cc1nc2ccc(CN(C)c3ccc(C(=O)N[C@@H](CCC(=O)O)C(=O)O)s3)cc2c(=O)[nH]1	–	7.82	–	-7.05	5.16
CCOC(=O)c1cc2n(n1)CC(C)(C(=O)NCCC(C)C)N(c1ccc(OC)cc1)C2=O (stereo not given)	-0.912	2.4	1.61	7.83	-3.66
Cc1cc(C)n(CC(=O)N2CCC3(CC2)CC(CN2CCOCC2)N(C)C3)n1 (stereo not given)	-2.55	-8.5	0.666	-6.53	-1.19
O=C(CCc1ccccc1)NCC1CCCCC(=O)N1 (stereo not given)	-1.2	0.433	0.642	1.21	3.01
COc1ccc(-c2nnc3n(Cc4ccc(C)cc4)c(=O)c4ccccc4n23)cc1	-10.6	4.04	1.97	1.22	-2.35
Cc1cccc(Cn2nc3n(CC(C)C)c(=O)c4ccc(C(=O)NC5CCCCC5)cc4n3c2=O)c1	5.54	1.82	6.7	7.63	4.28
Cc1ccc(N2C(=O)c3cc4sccc4n3CC2(C)C(=O)NC2CCCC(C)C2C)c(C)c1 (stereo not given)	-6.19	5	-2.65	0.711	-1.56
